Biological target: T1, human PD-1 (amino acids 1-185) stably expressed on Jurkat cells (human, UniProt Q15116 partial chain)
T1 construct: extracellular domain and a portion of the transmembrane domain, on cells; also called hPD-1; Jurkat+hPD-1 cell line
Assay: flow cytometry, Jurkat+hPD-1 cells, APC anti-human IgG Fc, gMFI; no competitor

T1 sequence (Q15116 21-185 limits assumed, form in doubt): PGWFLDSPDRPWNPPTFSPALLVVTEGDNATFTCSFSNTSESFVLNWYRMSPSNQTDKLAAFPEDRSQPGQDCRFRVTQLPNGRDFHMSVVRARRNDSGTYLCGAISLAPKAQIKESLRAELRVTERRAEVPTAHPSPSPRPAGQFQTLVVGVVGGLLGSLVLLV

B1: A2-hIgG4-df-hIL-2 (D20A/R38E) (other)
heavy: DVQLVESGGGLVQPGGSLRLSCAASGFTFDISAMSWVRQAPGKGLEWVSTISGSAYSTYYADSVKGRFTISRDNSKSTLYLQMNSLRAEDTAVYYCAREIFSDYWGLGTLVTVSSASTKGPSVFPLAPCSRSTSESTAALGCLVKDYFPEPVTVSWNSGALTSGVHTFPAVLQSSGLYSLSSVVTVPSSSLGTKTYTCNVDHKPSNTKVDKRV[sequence of about 350 residues with a human IgG4 Fc omitted]
light: QSVLTQPPSASGTPGQRVTISCSGSTSNIGRESVYWYQQLPGTAPKLLIYSNVQRPSGAPNRFSGSKSGTSASLAISGLQSEDEADYYCGTWDDSLNGWVFGGGTKLTVLGQPKAAPSVTLFPPSSEELQANKATLVCLISDFYPGAVTVAWKADSSPVKAGVETTTPSKQSNNKYAASSYLSLTPEQWKSHRSYSCQVTHEGSTVEKTVAPTECS
EC50 (read off the curve): ~5 nM

Reference: patent publication US20250195677A1 (CEPHALON, published 2025)
